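96-well plates; 48 h exposure; 5 concentrations. Endpoints by linear interpolation between flanking doses. Not reached: highest tested concentration assigned. Here, GI50 denotes the concentration required for 50% inhibition of growth.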 Some entries of the source have several records that differ or are many. This is not the full list of results. The source may hold further records. For some of these results: A record mostly stands for its own series of concentrations, not given here; some values may only mark the edge of a range. Brackets tell where a record comes from. Letters count within one entry. For some of these results: Values given together are repeated measurements across runs, samples, wells, individuals or studies.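 Definition used: TGI = concentration required for complete inhibition of growth.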

Our source for the TGI and GI50 values is PubChem BioAssay (NCI).

Some test systems named below: OVCAR-5 ovarian; HCC-2998 colon; CAKI-1 renal; SF-295 CNS; SK-MEL-5 melanoma; U251 CNS; MCF7 breast; NCI-H226 lung; HCT-15 colon; A549 NSCLC; SF-268 CNS; CCRF-CEM leukemia; SK-MEL-2 melanoma; TK-10 renal; NCI-H460 lung; OVCAR-3 ovarian; HS 578T breast; HT29 colon; MDA-MB-231 breast; HOP-92 NSCLC; EKVX NSCLC; NCI-H23 lung; RPMI-8226 leukemia; OVCAR-4 ovarian; HCT-116 colon; LOX IMVI melanoma; SK-OV-3 ovarian.

Holding throughout (assay): DTP human tumour cell line panel, 48 h

For the compound `CCOC(=O)/C=C(/C(=O)OCC)n1cc(Cl)c(=O)n(CC(=O)OCC)c1=O`, the TGI in the assay with OVCAR-5 ovarian was 8.72 µM and > 100 µM.

Regarding `COc1cccc(-c2cc(=O)c3cc(N(C)C)ccc3[nH]2)c1`, the TGI in the assay on HCC-2998 colon was 12.5 nM [sample A, 1 test] and 269 nM [sample A, mean of 2 tests] and 35.9 nM [sample B, 1 test] and 55.5 nM [sample B, mean of 2 tests]; with SF-295 CNS it was > 100 µM [sample A, 1 test] and 44 nM [sample A, mean of 2 tests] and 27.9 nM [sample B, mean of 2 tests]; with SK-MEL-5 melanoma, > 100 µM [sample A, 1 test] and 230 nM [sample A, mean of 2 tests] and 27.7 µM [sample B, 1 test] and 126 nM [sample B, mean of 2 tests]; in the assay on U251 CNS it was > 100 µM [sample A, 1 test] and 266 nM [sample A, mean of 2 tests] and 20.5 µM [sample B, 1 test] and 600 nM [sample B, mean of 2 tests]; in the assay on MCF7 breast it was > 100 µM [sample A, 1 test] and 8.63 µM [sample A, mean of 2 tests] and 56 µM [sample B, 1 test]; in the assay with NCI-H226 lung, 103 nM, 254 nM [sample A] and 114 nM, 328 nM [sample B]. In addition, the TGI in the assay with HCT-15 colon is 38.3 nM, 79.9 nM [sample A] and 54.4 nM, 7.31 µM [sample B]; in the assay with SF-268 CNS, > 100 µM [sample A, 1 test] and 948 nM [sample A, mean of 2 tests] and 19.9 µM [sample B, 1 test] and 421 nM [sample B, mean of 2 tests]; in the assay on CCRF-CEM leukemia it was 3.38 µM [sample A, mean of 2 tests] and 15.7 nM [sample B, 1 test]; in the assay with SK-MEL-2 melanoma, > 100 µM [sample A, 1 test] and 583 nM [sample A, mean of 2 tests] and > 100 µM [sample B, 1 test] and 1.93 µM [sample B, mean of 2 tests]; in the assay with NCI-H460 lung it was > 100 µM [sample A, 1 test] and 1.35 µM [sample A, mean of 2 tests] and 14.7 µM [sample B, 1 test] and 4.55 µM [sample B, mean of 2 tests]; in the assay with OVCAR-3 ovarian it was 33.7 nM, 6.36 µM [sample A, 1 test] and 7.1 nM, 11.2 µM [sample B, 1 test]. Besides, the TGI with HS 578T breast is 77.7 nM [sample A, mean of 2 tests] and 8.05 µM [sample B, 1 test]; in the assay with HT29 colon it was 52 nM, 13.8 nM [sample A] and 45.6 nM, 57.8 nM [sample B]; with MDA-MB-231 breast, 6.9 µM, 75.5 nM [sample A] and 920 nM [sample B]; in the assay with HOP-92 NSCLC, > 100 µM [sample A, 1 test] and 2.18 µM [sample A, mean of 2 tests] and 77.1 µM [sample B, 1 test] and 929 nM [sample B, mean of 2 tests]; in the assay with EKVX NSCLC, > 100 µM [sample A, 1 test] and 7.84 µM [sample A, mean of 2 tests] and 22.3 µM [sample B, 1 test]; with NCI-H23 lung it was 930 nM, > 100 µM [sample A] and 980 nM [sample B]. Also, the TGI is 6.33 µM [sample A] and 6.51 µM, 28.7 nM [sample B] with RPMI-8226 leukemia; 1.2 µM, > 100 µM [sample A, 1 test] and 1.02 µM, 12.7 µM [sample B, 1 test] in the assay with HCT-116 colon; 92.8 µM [sample A, 1 test] and 1.31 µM [sample A, mean of 2 tests] and 86.8 µM [sample B, 1 test] and 934 nM [sample B, mean of 2 tests] in the assay on LOX IMVI melanoma; 925 nM [sample A, mean of 2 tests] and 15.8 µM [sample B, 1 test] and 748 nM [sample B, mean of 2 tests] in the assay with SK-OV-3 ovarian. Also, the GI50 is 65.7 nM [sample A, mean of 2 tests] and 5.88 nM [sample B, mean of 2 tests] in the assay on CAKI-1 renal; 23.9 nM [sample A, 1 test] and 101 nM [sample A, mean of 2 tests] and 27.2 nM [sample B, 1 test] and 46.7 nM [sample B, mean of 2 tests] in the assay on MCF7 breast; 14.3 nM [sample A, 1 test] and 45.9 nM [sample A, mean of 2 tests] and 42.3 nM [sample B, 1 test] and 21.9 nM [sample B, mean of 2 tests] with A549 NSCLC; 16.3 nM [sample A, 1 test] and 33.2 nM [sample A, mean of 2 tests] and 11.9 nM [sample B, 1 test] and 5.39 nM [sample B, mean of 2 tests] with SF-268 CNS; 77.2 nM [sample A, 1 test] and 323 nM [sample A, mean of 2 tests] and 51 nM [sample B, 1 test] and 56.9 nM [sample B, mean of 2 tests] with TK-10 renal; 26.4 nM [sample A, 1 test] and 96.2 nM [sample A, mean of 2 tests] and 29.8 nM [sample B, 1 test] and 6.29 nM [sample B, mean of 2 tests] in the assay with HOP-92 NSCLC. Further, the concentration for 50% growth inhibition (GI50) in the assay with EKVX NSCLC was 14.5 nM [sample A, 1 test] and 172 nM [sample A, mean of 2 tests] and 13.6 nM [sample B, 1 test] and 81.6 nM [sample B, mean of 2 tests]; in the assay with OVCAR-4 ovarian, > 100 µM [sample A, 1 test] and 286 nM [sample B, 1 test].
